The other results are listed elsewhere or left out.
system: HSkMC (human skeletal muscle cells); experiment: cytotoxicity call (relative viability < 0.9); details: 10 µM

Compound	cytotoxicity call
CCOCC(=O)N1C[C@H]2CNC[C@H]2C1	inactive
COc1ccc2[nH]cc(CCN)c2c1	inactive
OCCN1CC2(CCN(c3nccs3)C2)C1	inactive
Cc1ccc2cc3c(ccc4ccccc43)c3c2c1CC3	inactive
Cc1[nH]c2ccccc2c1CCN	inactive
C(=N/C12CN3CN(CN(C3)C1)C2)/c1cccnc1	inactive
N#Cc1c(Cl)c(Cl)c(Cl)c(C#N)c1Cl	active
CC(C)[C@@H](Br)C(=O)NC(N)=O	inactive
C[C@@H]1CN([C@H](C)CO)C(=O)CCCn2nncc2CO[C@@H]1CN(C)C(=O)Oc1cccc2ccccc12	inactive
CN1CCN(C(=O)CN=[N+]=[N-])CC1	inactive
CC(C)c1csc(CCN)n1	inactive
O=C(NCc1ccccn1)[C@]12CNC[C@H]1COC2	inactive
NC(Cc1ccc(N(CCCl)CCCl)cc1)C(=O)O (stereo unspecified)	inactive
CC(=O)c1c(O)c(C)c(O)c(Cc2c(O)c3c(c(C(=O)/C=C/c4ccccc4)c2O)OC(C)(C)C=C3)c1O	inactive
CC(=O)c1c(O)cc(C)oc1=O	inactive
CC(C)C[C@@H](NC(=O)[C@H](Cc1ccccc1)NC(=O)CNC(=O)[C@@H](C)NC(=O)[C@@H](N)Cc1ccc(O)cc1)C(=O)O	inactive
CC(C)(C)CC(=O)N1C[C@H]2C[C@@H]1CN2	inactive
C=C(C)[C@H]1CN[C@H](C(=O)O)[C@@H]1CC(=O)O	inactive
COCCCNC(=O)C1[C@@H]2CC[C@H]1CNC2 (stereo partly specified)	inactive
COc1ccc(C(=O)N2CCCC2=O)cc1	inactive
CC(C)(C)OC(=O)N1C[C@H]2C[C@@H]1CN2	inactive
